Measured values published in the supplement of paper PMC8728848.
This is one part of the list.

What was measured:
Experiment in all cases: glycan array binding signal (z-score within array); higher = stronger binding
Conditions in all cases: glycan notation: IUPAC condensed, linker removed
[1] = biological target: Neu5Ac(a2-3)Gal(b1-3)GalNAc
Method in brief: (§1)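 The binding signal is a Z-score computed within each array. Data were drawn from 3228 arrays in the Consortium for Functional Glycomics database, restricted to those with a known protein sequence. Scores were averaged over arrays of the same protein sequence at different concentrations or buffers, and over linkers, and negative values can be taken as non-binding.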

[2] = biological target: Neu5Ac(a2-3)Gal(b1-3)GalNAc(b1-3)Gal(a1-4)Gal(b1-4)Glc
Method in brief: as §1

[3] = biological target: Neu5Ac(a2-3)Gal(b1-3)GalNAc(b1-4)[Neu5Ac(a2-3)]Gal(b1-4)Glc
Method in brief: as §1

[4] = biological target: Neu5Ac(a2-3)Gal(b1-3)GalNAc(b1-4)[Neu5Ac(a2-8)Neu5Ac(a2-3)]Gal(b1-4)Glc
Method in brief: as §1

[5] = biological target: Neu5Ac(a2-3)Gal(b1-3)GalNAc6S
Method in brief: as §1

[6] = biological target: Neu5Ac(a2-3)Gal(b1-3)GlcNAc
Method in brief: as §1

[7] = biological target: Neu5Ac(a2-3)Gal(b1-3)GlcNAc(b1-2)Man
Method in brief: as §1

[8] = biological target: Neu5Ac(a2-3)Gal(b1-3)GlcNAc(b1-2)Man(a1-3)[GlcNAc(b1-4)][Neu5Ac(a2-3)Gal(b1-3)GlcNAc(b1-2)Man(a1-6)]Man(b1-4)GlcNAc(b1-4)GlcNAc
Method in brief: as §1

[9] = biological target: Neu5Ac(a2-3)Gal(b1-3)GlcNAc(b1-2)Man(a1-3)[Neu5Ac(a2-3)Gal(b1-3)GlcNAc(b1-2)Man(a1-6)]Man(b1-4)GlcNAc(b1-4)GlcNAc
Method in brief: as §1

[10] = biological target: Neu5Ac(a2-3)Gal(b1-3)GlcNAc(b1-3)Gal(b1-3)GlcNAc
Method in brief: as §1

[11] = biological target: Neu5Ac(a2-3)Gal(b1-3)GlcNAc(b1-3)Gal(b1-4)GlcNAc
Method in brief: as §1

[12] = biological target: Neu5Ac(a2-3)Gal(b1-3)GlcNAc(b1-3)GalNAc
Method in brief: as §1

[13] = biological target: Neu5Ac(a2-3)Gal(b1-3)GlcNAc(b1-4)Gal(b1-4)Glc
Method in brief: as §1

[14] = biological target: Neu5Ac(a2-3)Gal(b1-3)GlcNAc(b1-6)GalNAc
Method in brief: as §1

[15] = biological target: Neu5Ac(a2-3)Gal(b1-3)GlcNAc6S
Method in brief: as §1

[16] = biological target: Neu5Ac(a2-3)Gal(b1-3)[Fuc(a1-4)]GlcNAc
Method in brief: as §1

[17] = biological target: Neu5Ac(a2-3)Gal(b1-3)[Fuc(a1-4)]GlcNAc(b1-3)Gal(b1-3)[Fuc(a1-4)]GlcNAc
Method in brief: as §1

[18] = biological target: Neu5Ac(a2-3)Gal(b1-3)[Fuc(a1-4)]GlcNAc(b1-3)Gal(b1-4)[Fuc(a1-3)]GlcNAc
Method in brief: as §1

[19] = biological target: Neu5Ac(a2-3)Gal(b1-3)[GlcNAc(b1-6)]GalNAc
Method in brief: as §1

[20] = biological target: Neu5Ac(a2-3)Gal(b1-3)[Neu5Ac(a2-6)]GalNAc
Method in brief: as §1

[21] = biological target: Neu5Ac(a2-3)Gal(b1-3)[Neu5Ac(a2-6)]GlcNAc(b1-3)[Fuc(a1-3)[Gal(b1-4)]GlcNAc(b1-6)]Gal(b1-4)Glc
Method in brief: as §1

[22] = biological target: Neu5Ac(a2-3)Gal(b1-3)]Neu5Ac(a2-3)Gal(b1-4)]GlcNAc
Method in brief: as §1

Neu5Ac(a2-3)Gal(b1-4)Glc = biological target: Neu5Ac(a2-3)Gal(b1-4)Glc
Method in brief: as §1

[23] = biological target: Neu5Ac(a2-3)Gal(b1-4)GlcNAc
Method in brief: as §1

[24] = biological target: Neu5Ac(a2-3)Gal(b1-4)GlcNAc(b1-2)Man
Method in brief: as §1

[25] = biological target: Neu5Ac(a2-3)Gal(b1-4)GlcNAc(b1-2)Man(a1-3)[GlcNAc(b1-4)][Neu5Ac(a2-3)Gal(b1-4)GlcNAc(b1-2)Man(a1-6)]Man(b1-4)GlcNAc(b1-4)GlcNAc
Method in brief: as §1

[26] = biological target: Neu5Ac(a2-3)Gal(b1-4)GlcNAc(b1-2)Man(a1-3)[Neu5Ac(a2-3)Gal(b1-4)GlcNAc(b1-2)Man(a1-6)]Man(b1-4)GlcNAc(b1-4)GlcNAc
Method in brief: as §1

[27] = biological target: Neu5Ac(a2-3)Gal(b1-4)GlcNAc(b1-2)Man(a1-3)[Neu5Ac(a2-3)Gal(b1-4)GlcNAc(b1-2)Man(a1-6)]Man(b1-4)GlcNAc(b1-4)[Fuc(a1-6)]GlcNAc
Method in brief: as §1

[28] = biological target: Neu5Ac(a2-3)Gal(b1-4)GlcNAc(b1-2)Man(a1-3)[Neu5Ac(a2-6)Gal(b1-4)GlcNAc(b1-2)Man(a1-6)]Man(b1-4)GlcNAc(b1-4)GlcNAc
Method in brief: as §1

[29] = biological target: Neu5Ac(a2-3)Gal(b1-4)GlcNAc(b1-2)[Neu5Ac(a2-3)Gal(b1-4)GlcNAc(b1-4)]Man(a1-3)[GlcNAc(b1-4)][Neu5Ac(a2-3)Gal(b1-4)GlcNAc(b1-2)[Neu5Ac(a2-3)Gal(b1-4)GlcNAc(b1-6)]Man(a1-6)]Man(b1-4)GlcNAc(b1-4)GlcNAc
Method in brief: as §1

[30] = biological target: Neu5Ac(a2-3)Gal(b1-4)GlcNAc(b1-2)[Neu5Ac(a2-3)Gal(b1-4)GlcNAc(b1-4)]Man(a1-3)[GlcNAc(b1-4)][Neu5Ac(a2-3)Gal(b1-4)GlcNAc(b1-4)Man(a1-6)]Man(b1-4)GlcNAc(b1-4)GlcNAc
Method in brief: as §1

[31] = biological target: Neu5Ac(a2-3)Gal(b1-4)GlcNAc(b1-2)[Neu5Ac(a2-3)Gal(b1-4)GlcNAc(b1-6)]Man(a1-6)[Neu5Ac(a2-3)Gal(b1-4)GlcNAc(b1-2)Man(a1-3)]Man(b1-4)GlcNAc(b1-4)GlcNAc
Method in brief: as §1

[32] = biological target: Neu5Ac(a2-3)Gal(b1-4)GlcNAc(b1-2)[Neu5Ac(a2-3)Gal(b1-4)GlcNAc(b1-6)]Man(a1-6)[Neu5Ac(a2-3)Gal(b1-4)GlcNAc(b1-2)Man(a1-3)][GlcNAc(b1-4)]Man(b1-4)GlcNAc(b1-4)GlcNAc
Method in brief: as §1

[33] = biological target: Neu5Ac(a2-3)Gal(b1-4)GlcNAc(b1-3)Gal
Method in brief: as §1

[34] = biological target: Neu5Ac(a2-3)Gal(b1-4)GlcNAc(b1-3)Gal(b1-3)GlcNAc
Method in brief: as §1

[35] = biological target: Neu5Ac(a2-3)Gal(b1-4)GlcNAc(b1-3)Gal(b1-4)GlcNAc
Method in brief: as §1

[36] = biological target: Neu5Ac(a2-3)Gal(b1-4)GlcNAc(b1-3)Gal(b1-4)GlcNAc(b1-2)Man(a1-3)[Neu5Ac(a2-3)Gal(b1-4)GlcNAc(b1-3)Gal(b1-4)GlcNAc(b1-2)Man(a1-6)]Man(b1-4)GlcNAc(b1-4)GlcNAc
Method in brief: as §1

B1: GSL-I-B4 (Griffonia simplicifolia) (protein)
chain: NFWSDVEDSIIFQGDANTTAGTLQLCKTNQYGTPLQWSAGRALYSDPVQLWDNKTESVASFYTEFTFFLKITGNGPADGLAFFLAPPDSDVKDAGEYLGLFNKSTATQPSKNQVVAVEFDTWTNPNFPEPSYRHIGINVNSIVSVATKRWEDSDIFSGKIATARISYDGSAEILTVVLSYPDGSDYILSHSVDMRQNLPESVRVGISASTGNNQFLTVYILSWRFSSNLQSTSVKAAMEPEITRTVV
[1]
  glycan array binding signal (z-score): -0.137
[2]
  glycan array binding signal (z-score): -0.102
[3]
  glycan array binding signal (z-score): -0.147
[4]
  glycan array binding signal (z-score): -0.187
[5]
  glycan array binding signal (z-score): -0.2
[6]
  glycan array binding signal (z-score): -0.178
[7]
  glycan array binding signal (z-score): -0.176
[8]
  glycan array binding signal (z-score): -0.151
[9]
  glycan array binding signal (z-score): -0.115
[10]
  glycan array binding signal (z-score): -0.169
[11]
  glycan array binding signal (z-score): -0.14
[12]
  glycan array binding signal (z-score): -0.117
[13]
  glycan array binding signal (z-score): -0.173
[14]
  glycan array binding signal (z-score): -0.198
[15]
  glycan array binding signal (z-score): -0.068
[16]
  glycan array binding signal (z-score): -0.207
[17]
  glycan array binding signal (z-score): -0.149
[18]
  glycan array binding signal (z-score): -0.102
[19]
  glycan array binding signal (z-score): -0.18
[20]
  glycan array binding signal (z-score): -0.166
[21]
  glycan array binding signal (z-score): -0.208
[22]
  glycan array binding signal (z-score): -0.222
Neu5Ac(a2-3)Gal(b1-4)Glc
  glycan array binding signal (z-score): -0.173
[23]
  glycan array binding signal (z-score): -0.189
[24]
  glycan array binding signal (z-score): -0.197
[25]
  glycan array binding signal (z-score): -0.216
[26]
  glycan array binding signal (z-score): -0.131
[27]
  glycan array binding signal (z-score): -0.214
[28]
  glycan array binding signal (z-score): -0.208
[29]
  glycan array binding signal (z-score): -0.163
[30]
  glycan array binding signal (z-score): -0.152
[31]
  glycan array binding signal (z-score): -0.164
[32]
  glycan array binding signal (z-score): -0.24
[33]
  glycan array binding signal (z-score): -0.112
[34]
  glycan array binding signal (z-score): -0.21
[35]
  glycan array binding signal (z-score): -0.204
[36]
  glycan array binding signal (z-score): 0.149
